Publication PMC10726135
This is one part of the list. At the low end of the ranking, values are background and their order means little. The protein was read in a cell extract, so binding may be indirect.

molecular target: T1, HNF4alpha8 (COS-7 nuclear extract) (UniProt P41235-5); assay: protein-binding microarray; conditions: COS-7 nuclear extract on double-stranded Agilent 4x180k PBM; binding buffer, salt, pH and temperature not given; high values mean tight binding; double strand, one strand shown; sequences stand for … in …GCCTAGGGAGATTAGAGTATCGGTCGA
T1 sequence: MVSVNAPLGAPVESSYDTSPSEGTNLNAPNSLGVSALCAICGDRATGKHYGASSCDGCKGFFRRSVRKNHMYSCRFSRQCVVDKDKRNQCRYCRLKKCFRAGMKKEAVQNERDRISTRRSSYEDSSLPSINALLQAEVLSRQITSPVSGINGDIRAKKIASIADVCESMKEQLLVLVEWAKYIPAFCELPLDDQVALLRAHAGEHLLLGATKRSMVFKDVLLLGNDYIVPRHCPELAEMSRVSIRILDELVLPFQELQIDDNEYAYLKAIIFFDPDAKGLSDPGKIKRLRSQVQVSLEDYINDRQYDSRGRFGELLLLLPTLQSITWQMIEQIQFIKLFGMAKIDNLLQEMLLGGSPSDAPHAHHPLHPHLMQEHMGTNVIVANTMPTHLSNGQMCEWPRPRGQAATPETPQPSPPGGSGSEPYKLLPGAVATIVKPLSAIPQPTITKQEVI

Row | Sequence | binding signal (log2 normalized intensity)
1 | GATCACTGCCTTGGAGGCACTCCCAGGATA | -1.44
2 | TTGACGCCACCTGAAGGCAGGTGTGGGTTG | 1.34
3 | GTAAAGGAGATTATCTAGACAAATTTGTTT | -0.606
4 | GAGGAAAACCAGCTCAGTGGAAATTGTCCT | 0.989
5 | GAAAGATTAAGAGGCTACAACCAGACTTGG | -1.32
6 | TCAGGAATGTGACCCCTTTCATGAATAAAT | 2.99
7 | TGTGACTTTTATCTTAGGTAATAAGCCTGA | 0.789
8 | AACAGAGCCCAAGGCAAAGCAGATGTGCTA | -1.31
9 | ACAATCTAAAAATGTTGAACTCACAAAAGT | 1.42
10 | TATCTAGGATGAGAATCCACCTGCCTGCTT | -1.27
11 | CACATTCACACAATCAGTGTGTTGACATTT | 1.63
12 | GTCCTCACAATAATGAGAAACGCCTGATAT | -1.35
13 | ACATGACCTTTGTCCGTTCCTGCCTGGAGC | 5.37
14 | AAATGGTGCAGCTGCTGAAACATTCAACTG | -1.37
15 | CAGGGATCCCTGCAGCCCACAGCCCGCTGT | -1.11
16 | AGGAAGCTCCAGCGGGGTTTGAATCCCGGG | -1.04
17 | CCCAAGTGCTCCTCCCCATCTCAGCCTCTC | 1.58
18 | CAGCAAAAATAGCCAAAATAAAGCAGCAAA | -1.25
19 | CTGCCGCGCCACTGCGTCCAGCCACAATTA | -1.27
20 | AGATGTCACAGGCAAGCAAGTGACATGTTG | -1.14
21 | TGCAGCTGGGAGATAAGATAGCACCAGCCC | -1.36
22 | ATGAAAGGTCCTTGAAAGTAAGCAGACACT | -1.22
23 | CCAGTGGCCCCTGAGCACTGTCTCAGGGTC | 1.97
24 | TATGCCACAGGGCAAGACACCAAAGGTCAC | 5.17

Row | Sequence | binding signal (log2 normalized intensity)
25 | TTTGGGGAAGGATAAAATGAAATCGCCTGA | -1.2
26 | ATCCTTCAACAATTCTATGAGTAGGTACAA | 0.687
27 | CTTAAAGTGTAAATATTTGAGGACACAAAG | 0.71
28 | CACTCTGGTGCCCTCTGAGTGTTTGACCTT | 5.61
29 | GGAAGGTGGGGGAGGAGACAGCTACGGAAT | -1.3
30 | AAGACCTCGGCCTCATGGGCGATCCCGAAA | -1.34
31 | CTCCCGGGCGCTGTCCGCCGCCTCGTGGTG | -1.42
32 | ACAGACTTCACACTAGAAGACTCATCTCAG | -1.37
33 | TACAGTGCCATTTATCAGTGATTTCTCTTC | -0.46
34 | CCTCTGCAGCCGCCCTTTTGCCTCCGCTCC | 1.21
35 | CACTAGGAGGAGGTCAAAGTGCAACTACAA | 6.09
36 | ATAAAATAGCTGCCTGTGTGTTCTGCTATT | 1.26
37 | GAACCTGCCCTCTGTCCCATGGTGTACAAG | 2.05
38 | TAGGCAAAAGACAGTGATTGTCACAAGACT | -1.17
39 | TTTTATGTTAAGATCAAACAGGGACAGATG | 0.165
40 | CCTGCAAGGACAAAGGTCATGTTTTCAAAC | 6.34
41 | ACACTTGCCCTTTGCCCTCACTGGTAGAAG | 5.8
42 | TCTGACCTTTGTCTCCAGGCAAACTACAGT | 4.06
43 | TGGCTGAGAGGGATAAAAGGGGAAAAGGTC | 2.58
44 | CTAAGGGGGAAAGTCCACGTGAGAGGGTCG | 3.25
45 | CTCTGGGACCGCAGGGGGCTCCCGGACCCT | 1.88
46 | TTATGTACTTAGTGTTTTATGTGTATTTAC | 2.09
47 | ATGAAAGAGACTAGTATGTAAATAAGAGCT | -1.34
48 | GGCACTGCTCCCTGCCCCTACCCCCACCCT | 5.76

Row | Sequence | binding signal (log2 normalized intensity)
49 | TACATTCCAAATACGATAATGTCAAACATC | -1.15
50 | ACCAAAGGAGTCCTGGCTGACAGATACCGT | -1.3
51 | GAGGACAACCAGAGGTCACTTTTATCACCA | 2.05
52 | AAACTCCTTCAGTTCTTATCTCGTACTTCT | 0.967
53 | AGGGTTACAAACTTCAAGGTCCATTTGAGG | 2.22
54 | CATTATTAGCAGCAGGTTATCTAATGGAGA | 1.06
55 | CTTTAGCACCTTCATCCAAAGATGACCTTT | 8.24
56 | CCTGAAGGGTGTTGTGGAATGTGCTTGGAC | 2.16
57 | GCCACTGCAGGGAGGACAGACTCTGGGAGA | -1.38
58 | AGCCCCAACCCACTGTTGCCCCTTCCAAAG | 4.73
59 | TGGACTGGGGACCTGGTCTGAGATATCTTT | -0.0981
60 | CCCACGTACATTGCACCCTCCAGGAGCCCC | 2.14
61 | CAGCTGTCTATCCTTATTTATCTTCCAGCG | 0.604
62 | AAAGTCTGGCAAATGAAATGTAATCAGCAA | -1.35
63 | AGAGGTAACTCCCCCTTCATCTGGGACGTG | 1.76
64 | CTGTGGTACAGGCAGTGACTGGACCACGAT | 0.677
65 | AAATACCCTCTTTAGGGTAGCCTGGGTTAA | 0.844
66 | CTTCCAGATCTGGATATGCCTGGGGTTCCA | 0.394
67 | GAGTTGGAGAAGAGCAAAGATCATCTGGTG | 1.45
68 | AATAACAAACAAGAAAGTTGAGGTGAATAC | -1.28
69 | CTGAAGGCAAATTCTTAGAATTGCACTGCA | -1.3
70 | AGAGGGACAAAATGCCCAGGATTCCTTTTT | -1.21
71 | ACAGCTAGTCTAGACTTTGCTTTCTTGGAG | 2.12
72 | CCGAGGCATATTTAACTTGGCAAGGGGAGG | -1.3

Row | Sequence | binding signal (log2 normalized intensity)
73 | GGAAGACTGATAAGAAAACTAGCAAGGATA | -1.41
74 | TAGCTTTCCTGTCACAAGAGATAAAGCTCT | -1.29
75 | AGAAGGAAAAGGCCTGACCTTTGCCCTCTG | 10.4
76 | AGGCAGGCTGAGTCAGTTTAGTCCTGGATG | 0.0385
77 | GACATCTGCTTCCAAAGAGCTCAACCTGTG | -1.27
78 | CAGCCCCATCCCCCAATACACACACACCCC | 6.49
79 | GAAAATATTTCTCTGAACTTTGACCTATAG | 9.31
80 | AATGTAAACTCCAAGGAGCAAATCCGTAAG | -1.3
81 | TGAATTGATTGCCAAGAGGGAGGGGTCAGG | 2.15
82 | CAAACTGGGACCTGTGACACTCTGCTGCCT | -1.2
83 | GAGTACTTGGACTTTAACCTTTAGATTACT | 7.94
84 | CCCCCAGGTAGCTGCCAATGCAAATCCCAG | 0.341
85 | TCAAAGGGCAAAGGAATAAAATAGCTGCCT | -1.23
86 | AAGATCAGTATAGTTAGGGCCTTGCAGGGG | 0.0399
87 | TGCGCTTAGTCCATGACGCAAGCGAGTAAG | -0.901
88 | TGGGCTCCTGCCTTGGAGAAGTGAACTTTG | 5.62
89 | ACATAAGCAGAGCCAAGTGGTCATTACCTC | -1.1
90 | ACCCAGACGAGCTGTCACTGGCTGCTGCTC | -1.42
91 | CACATACACACACACACACACACATTGCAG | -1.34
92 | CTTCCTCTTCTTCACCGGAGATTTACATTC | 0.428
93 | GTTATCTCTCAACTCAGTGAGGGCTATTGA | -0.789
